# According to ChEMBL document CHEMBL4888484, “Replenishing the malaria drug discovery pipeline: Screening and hit evaluation of the MMV Hit Generation Library 1 (HGL1) against asexual blood stage Plasmodium falciparum ,using a nano luciferase reporter read-out” (2022):
# Out of some 150,000 compounds screened, about 540 (0.36%) showed an effect of 50% or more. The list shows a part of the results.
# System: Plasmodium falciparum
# Assay: Primary screen in NF54 nanoGlo assay, in single point, at 2uM, 72h; a lower Z score goes with more inhibition
# Type: functional, Erythrocyte
# Details: timepoint 72 hour
SMILES,% Inhibition,Z score
CO[C@@H](C)c1nsc(N2CCC(c3cc(N)[nH]n3)CC2)n1,-22%,3.46
O=C(CN1CCN(c2ccc3c(c2)OCO3)C1=O)NCCc1ccc(F)cc1,-9%,1.49
CC(C)[C@H](NC(=O)N1c2ccccc2NC(=O)[C@@H]1C(C)C)C(=O)N[C@@H](Cc1ccccc1)C(=O)O,6%,-0.78
CC(C)C(=O)N1CCC2(CCCCO2)CC1,0%,0.01
COc1ccc(Cl)cc1C(=O)N1CC[C@H](N2C(=O)CNC2=O)C1,0%,0.08
Cn1c(Cn2nc(C(F)(F)F)ccc2=O)cc(=O)n(C)c1=O,-11%,1.39
c1csc([C@@H]2CCCCN2Cc2cscn2)n1,-14%,1.77
COc1ccc2oc(C(=O)N3CC[C@H](Oc4nccnc4C#N)C3)cc2c1,-14%,2.34
Cc1n[nH]c(CNc2nc(C(C)C)ns2)c1C,-5%,0.79
COc1ccc(S(=O)(=O)Nc2ccc(N3CCCCCCC3)c(C(=O)O)c2)cc1Cl,-7%,0.64
COc1ccc(CN2CCC(CNC(=O)c3cncnc3)CC2)c(OC)c1OC,-4%,0.38
CO[C@H]1CN(C2CCN(S(=O)(=O)c3ccccc3)CC2)[C@H]1c1ccncc1,-11%,1.41
Cc1nn(C)c(C)c1C(NC(=O)N1C[C@H](O)[C@@H](n2ccnn2)C1)C(F)(F)F (some centres undefined),-11%,1.47
CCc1noc(CNC(CC)(CC)CNC(=O)OC(C)(C)C)n1,-10%,1.82
COCc1nc(C(=O)N[C@H]2CCCN(c3cccc(F)c3)C2)co1,6%,-0.71
CCCc1cc(C(=O)N2C[C@@H]3NC(=O)CN(C)C(=O)c4ccc(C)c(c4)Oc4cccc(c4)CO[C@H]3C2)n(C)n1,-1%,0.13
CC(C)COc1nc(-c2cccc(C(F)(F)F)c2)n(-c2ccc(NC(=O)c3ccc4ccccc4c3)cc2)n1,0%,-0.06
CC(C)OC(=O)[C@@H]1CCCN1C(=O)Cc1cc(-c2ccccc2)on1,-13%,1.16
COc1ccccc1C(=O)N1CCC2(O)CCCCC2[C@@H]1c1cc(OC)c(OC)c(OC)c1 (some centres undefined),0%,-0.05
O=C(c1cc(-c2ccccc2Cl)nc2ccccc12)N1CCN(C(c2ccccc2)c2ccccc2)CC1,-11%,1.53
Cc1csc([C@@H]2CCCN2C(=O)c2ccc(Cl)cn2)n1,-7%,1.29

SMILES,% Inhibition,Z score
CN(Cc1ccc(N2CCOCC2)cc1)Cn1c(C(F)(F)F)csc1=O,-1%,0.15
Cc1cnc([C@H](C)NC(=O)N(C)Cc2ccn(C)n2)s1,-10%,1.59
Cc1cc2c(cc1C)[C@H](C(=O)Nc1cn(C)c(=O)n(C)c1=O)CO2,-9%,1.21
Cc1ccnc(OC[C@H]2CCCN2C)c1,1%,-0.25
O=C1NC(c2ccc(-c3ccc(Cl)cc3)o2)C(C(=O)c2ccccc2)C(O)(C(F)(F)F)N1 (centres undefined),-3%,0.53
CCO[C@@H](CCNC(=O)c1cccc(-c2ncn[nH]2)c1)C(C)C,-7%,0.96
CO[C@@H]1CS(=O)(=O)[C@H]2CN(C(=O)Nc3ccc4c(c3F)CCNC4=O)C[C@@H]12,-13%,1.67
CC1(C)Cc2ccc3nc(N)nc(N)c3c2O1,-1%,0.14
O=C(NC[C@@H](c1ccsc1)n1cccn1)c1ccno1,-5%,1.08
N#Cc1ccc(CNC(=O)c2ccc3nc(-c4ccccc4)cn3c2)cc1,-16%,2.02
OCC[C@H]1CCCCN1CCN1CCN(Cc2ccccc2)CC1,7%,-0.86
Cc1nc(C2(C)CCN(C(=O)c3noc(C)c3Cc3c(C)noc3C)CC2)no1,-6%,0.74
CC(C)CC(=O)N1CC[C@H]2COC(=O)N2c2ccccc2C1,-4%,0.68
CC12C(=O)N(c3ccc(OC(=O)c4ccccc4)cc3)C(=O)C1C1c3ccccc3C2c2ccccc21 (centres undefined),2%,-0.23
Cn1cccc1[C@@H](O)CCNC(=O)Nc1ccccc1,-4%,0.63
Fc1ccccc1-c1noc(N2CCN(Cc3ccc4c(c3)OCO4)CC2)n1,-9%,1.4
O=C(OCc1noc(C2CC2)n1)[C@H]1CC(=O)N(c2ccc3c(c2)CCC3)C1,-6%,0.94
COCC(O)CNC(=O)NC(c1ccccc1C)C(C)(C)C (centres undefined),30%,-3.35
COc1ccc2[nH]cc([C@H](CC(=O)NCCN3CCOCC3)c3cccc(C(F)(F)F)c3)c2c1,-9%,1.15
CCC[C@H](C)N1CC2(CCN(C(=O)CCn3cc(C)cn3)CC2)OC1=O,-7%,1.41
Cc1ccc(N2CCOC2=O)cc1NC(=O)N1CCCN(CC(F)F)CC1,-18%,2.36

SMILES,% Inhibition,Z score
O=C(c1ccco1)N1CCN(CC2([C@@H]3CCCCO3)CCC2)CC1,2%,-0.46
c1ccc2c(c1)nc(-c1ccc3c(c1)OCO3)n2Cc1ccc2c(c1)OCO2,-6%,0.59
CC1CCN(C(=O)Nc2nc3ccccn3n2)C1c1cccc(F)c1 (centres undefined),-6%,0.75
Cc1c(CN2CCC[C@H]2c2nc(-c3ccncc3)no2)[nH]c2ccc(Cl)cc12,4%,-0.8
O=C(NCCc1cccnc1)OCC(F)(F)F,39%,-5.57
COCCn1cc(CNc2nc3cccc(C)c3s2)c(=O)[nH]c1=O,-49%,5.71
CN(Cc1cc(Br)ccc1F)C[C@](C)(O)C(=O)O,-15%,1.89
N#CC1(CNC(=O)[C@@H]2CCCn3cc(C(F)(F)F)nc32)CCCCC1,4%,-0.62
CC(=O)NCCc1noc(C2(c3ccccc3)CCC2)n1,-11%,1.17
O=C(Nc1ccc(-c2ccco2)cc1)N1C[C@H](CO)[C@@H](CO)C1,-13%,1.21
COC[C@H]1CCN(C(=O)Nc2c(F)cccc2Oc2ccccc2)C1,-6%,0.55
CC1CC(CNC(=O)NCC2CCCC(O)C2)CC(C)O1 (centres undefined),-5%,1.02
Cc1nc(-c2ccco2)ccc1C(=O)Nc1ccc(-n2cncn2)nc1,-17%,2.62
CS(=O)(=O)N[C@H]1CC12CCN(C(=O)Cc1c[nH]c3ccccc13)CC2,-13%,1.55
O=C(Cc1cccs1)N1CCC[C@@](F)(C(=O)N2CCOCC2)C1,-29%,2.59
Cc1cc(=O)c(C(=O)NC(C)(C)c2ccccc2Br)c[nH]1,6%,-1.07
NC(=O)c1ccc(NC(=O)N2CCC[C@H](c3cc(F)ccc3F)C2)cc1F,37%,-4.74
Cc1ncn(-c2cc(N3CCN(C(=O)Cc4c[nH]c5ccccc45)CC3)ncn2)c1C,-4%,0.4
CCS(=O)(=O)n1nc(Nc2ccccc2OC)cc1Nc1ccccc1OC,-5%,0.71
CC(CNC(=O)C1c2c[nH]nc2CCC1C)COCc1ccccc1 (centres undefined),2%,-0.28
NC(=NCc1ccc(-n2cncn2)nc1)c1ccccc1,-3%,0.63

SMILES,% Inhibition,Z score
Cc1ccc(-c2nnc(N3CCC(C(=O)NC[C@H]4CCCO4)CC3)o2)cc1,-5%,0.82
CC(=O)N1CCN(C(=O)[C@@H]2COC3(CCC(C)CC3)N2C(=O)c2ccc(F)cc2F)CC1 (some centres undefined),11%,-1.66
CN=C(NCc1cnn(C)c1)NCc1ccc(C)cc1OCC1CC1,-10%,1.45
CCN(CC)[C@@H](C)CNCc1c[nH]nc1-c1cccnc1,-4%,0.53
CC(CCc1cccn1C)NC(=O)N(C)C(C)C1CC1 (centres undefined),-8%,1
C[C@H]1CN(c2ncnc3c2CCN(Cc2cccnc2)CC3)CCN1C,-4%,0.58
C=C(C)CN(C)[C@@H](C)c1cccc(O)c1,3%,-0.5
CCN(CCn1cccn1)c1nc2c(s1)c(C)nn2C,-22%,2.59
CCn1c(C)cc(C(=O)N2CCC(C(N)=O)CC2)c1C,-13%,1.19
CO[C@H]1COCC[C@@H]1NC(=O)c1ccc2ccccc2n1,-6%,1.1
Cc1[nH]c(=O)n(C)c(=O)c1CCC(=O)Nc1ccc2c(c1)NC(=O)[C@H](C)O2,2%,-0.32
COc1cc(C)ccc1Oc1ccc(NC(=O)CNCC2CC2)cc1F,-7%,1.03
CC(C)(C)c1cc(C(C)(C)C)c(C(N)=O)c(=O)[nH]1,5%,-0.79
CC(C)CC1OCCCC1NC(=O)N1CC2CCC1CN2 (centres undefined),0%,0.03
O=C(Cn1cnc2c(nc3n2CCCCC3)c1=O)NCc1ccc(F)cc1,-5%,0.84
C[C@H](NC(=O)Cn1cnc(C#N)c1C#N)c1cccs1,-6%,1.08
CCc1ccc2nc(C)cc(C(=O)N3CCC4(CC3)C(=O)N(C)C(=O)N4C)c2c1,12%,-1.77
O=C(c1cn[nH]c1)N(CCO)Cc1cccs1,-6%,1.21
CCO[C@H]1COC[C@@H]1NC(=O)c1ccc(C#N)nc1,-4%,0.73
